According to the supplement of paper PMC7580552:
Where a name gives a salt, the structure may show the parent alone. ± gives the standard deviation of the averaged measurements. This is one part of the list. Single values are uncertain, as repeats are few or missing.

test system: Escherichia coli W3110; test: planktonic growth (OD600) relative to untreated control; higher = more growth; details: 10 µM; 20-24 h; 30 °C; TB
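Note: stationary (unshaken) cultures in 96-well plates, started at OD600 0.05 from mid-exponential cells, with compounds supplied from DMSO stocks.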

| SMILES | planktonic growth |
| --- | --- |
| CC(C)(C)NC(=O)[C@H]1CC[C@H]2[C@@H]3CC[C@H]4NC(=O)C=C[C@]4(C)[C@H]3CC[C@]12C [Finasteride] | 97% |
| Cn1nnc2c(C(N)=O)ncn2c1=O [Temozolomide] | 96% |
| CC(C)(C)CC(C)(C)c1ccc(OCCOCC[N+](C)(C)Cc2ccccc2)cc1 [Benzethonium chloride] | 76% |
| CCCCOc1ccc(C(=O)CCN2CCCCC2)cc1 [Dyclonine hydrochloride] | 91% |
| CC[C@H](c1ccc(O)cc1)[C@@H](CC)c1ccc(O)cc1 [Hexestrol] | 91% |
| Cc1c(Nc2ncccc2C(=O)O)cccc1C(F)(F)F [Flunixin meglumine] | 95% |
| NCCc1ccc(O)c(O)c1 [Dopamine hydrochloride] | 101% |
| C[C@H](CS)C(=O)N1CCC[C@H]1C(=O)O [Captopril] | 94% |
| CN(Cc1cc(Br)cc(Br)c1N)C1CCCCC1 [Bromhexine hydrochloride] | 91% |
| CC1(C)O[C@@H]2C[C@H]3[C@@H]4C[C@H](F)C5=CC(=O)C=C[C@]5(C)[C@H]4[C@@H](O)C[C@]3(C)[C@]2(C(=O)CO)O1 [Flunisolide] | 112 ± 2.8% |
| CCCc1nn(C)c2c(=O)[nH]c(-c3cc(S(=O)(=O)N4CCN(C)CC4)ccc3OCC)nc12 [Sildenafil] | 110% |
| CC(=O)Oc1ccc(C(c2ccc(OC(C)=O)cc2)c2ccccn2)cc1 [Bisacodyl] | 72% |
| CCC(C)(C)C(=O)O[C@H]1C[C@@H](C)C=C2C=C[C@H](C)[C@H](CC[C@@H]3C[C@@H](O)CC(=O)O3)[C@H]21 [Simvastatin] | 93% |
| CCc1nn(CCCN2CCN(c3cccc(Cl)c3)CC2)c(=O)n1CCOc1ccccc1 [Nefazodone hydrochloride] | 101% |
| C[N+](C)(CCOc1ccccc1)Cc1ccccc1.O=C([O-])c1cc2ccccc2cc1O [Bephenium hydroxynaphthoate] | 95% |
| CC(NCCc1ccc(O)cc1)C(O)c1ccc(O)cc1 (centres undefined) [Ritodrine hydrochloride] | 97% |
| NC1CCN(c2c(F)cc3c(=O)c(C(=O)O)cn(C4CC4)c3c2Cl)C1 (centres undefined) [Clinafloxacin] | 25% |
| CCC1(C)CC(=O)NC1=O (centres undefined) [Ethosuximide] | 101% |
| CCCNC(C)(C)COC(=O)c1ccccc1 [Meprylcaine hydrochloride] | 92% |
| CCC(=O)O[C@]1(C(=O)SCF)[C@H](C)C[C@H]2[C@@H]3C[C@H](F)C4=CC(=O)C=C[C@]4(C)[C@@]3(F)[C@@H](O)C[C@@]21C [Fluticasone propionate] | 95% |
| Nc1ccc(/N=N/c2ccccc2)c(N)n1 [Phenazopyridine hydrochloride] | 101% |
| CN(C)CCOC(=O)C(c1ccccc1)C1(O)CCCC1 (centres undefined) [Cyclopentolate hydrochloride] | 89% |
| Nc1nc(/C(=C/CC(=O)O)C(=O)N[C@@H]2C(=O)N3C(C(=O)O)=CCS[C@H]23)cs1 [Ceftibuten] | 43% |
| OCCN1CCN(CC/C=C2/c3ccccc3Sc3ccc(Cl)cc32)CC1 [Zuclopenthixol dihydrochloride] | 100% |
| Nc1ccc(C(=O)O)c(O)c1 [4-aminosalicylic acid] | 92% |

| SMILES | planktonic growth |
| --- | --- |
| O=C1Nc2ccc(Cl)cc2[C@@](C#CC2CC2)(C(F)(F)F)O1 [Efavirenz] | 90% |
| Clc1ccc(C(c2ccccc2Cl)C(Cl)Cl)cc1 (centres undefined) [Mitotane] | 103% |
| O=C1O[C@H]([C@@H](O)CO)C(O)=C1O [Ascorbic acid] | 99% |
| Cc1cccc(C)c1OCC(=O)N[C@@H](Cc1ccccc1)[C@@H](O)C[C@H](Cc1ccccc1)NC(=O)[C@H](C(C)C)N1CCCNC1=O [Lopinavir] | 97% |
| O=C(O)c1ccccc1Nc1cccc(C(F)(F)F)c1 [Flufenamic acid] | 102% |
| CC[N+](C)(CC)CCC[n+]1c(-c2ccccc2)c2cc(N)ccc2c2ccc(N)cc21 [Propidium iodide] | 104% |
| CC(C)NNC(=O)c1ccncc1 [Iproniazide phosphate] | 93% |
| O=C1c2cccc(O)c2C(=O)c2c(O)cccc21 [1,8-Dihydroxyanthraquinone] | 96% |
| CCCCC(=O)N(Cc1ccc(-c2ccccc2-c2nnn[nH]2)cc1)[C@H](C(=O)O)C(C)C [Valsartan] | 102% |
| OC(CCN1CCCCC1)(c1ccccc1)c1ccccc1 [Pridinol methanesulfonate salt] | 94% |
| CCN(CC)CCNC(=O)c1cc(Br)c(N)cc1OC [Bromopride] | 96% |
| C[N+](C)(C)CCOC(N)=O [Carbachol] | 107% |
| CC(C)(C)NC[C@H](O)COc1cccc2c1CCCC2=O [(-) -Levobunolol hydrochloride] | 104% |
| Nc1ncn(C2OC(CO)C(O)C2O)c(=O)n1 (centres undefined) [Azacytidine-5] | 88% |
| O=C(NC(Cc1cc(=O)[nH]c2ccccc12)C(=O)O)c1ccc(Cl)cc1 (centres undefined) [Rebamipide] | 110% |
| O=C1c2c(O)ccc(O)c2C(=O)c2c(NCCNCCO)ccc(NCCNCCO)c21 [Mitoxantrone dihydrochloride] | 120% |
| CCOC(=O)C1=C(C)NC(C)=C(C(=O)OC)C1c1cccc(Cl)c1Cl (centres undefined) [Felodipine] | 96% |
| C[C@H](CCC(=O)O)[C@H]1CC[C@H]2[C@@H]3C(=O)C[C@@H]4CC(=O)CC[C@]4(C)[C@H]3CC(=O)[C@]12C [Dehydrocholic acid] | 102% |
| CN1CCN2c3ccccc3Cc3ccccc3C2C1 (centres undefined) [Mianserine hydrochloride] | 94% |
| N[C@@H](Cc1ccc(O)c(O)c1)C(=O)O [Levodopa] | 94% |
| CCCCc1ncc(/C=C(\Cc2cccs2)C(=O)O)n1Cc1ccc(C(=O)O)cc1 [Eprosartan mesylate] | 99% |
| O=C(O)CCC(=O)c1ccc(-c2ccccc2)cc1 [Fenbufen] | 91% |
| COc1ccccc1OCCNCC(O)COc1cccc2[nH]c3ccccc3c12 (centres undefined) [Carvedilol] | 101% |
| CC(C)c1nc(CN(C)C(=O)N[C@H](C(=O)N[C@@H](Cc2ccccc2)C[C@H](O)[C@H](Cc2ccccc2)NC(=O)OCc2cncs2)C(C)C)cs1 [Ritonavir] | 101% |
